# Data from PubChem BioAssay AID504467 (National Center for Advancing Translational Sciences (NCATS), 2011).
# Screen size: about 330,000 compounds; about 7,700 (2.3%) were called active. Inconclusive results (about 26%) are left out. Calls follow the shape of the dose curve; as a rule, active = well fitted inhibition curve with a large enough effect; inconclusive = small, poorly fitted or top-dose-only effect, or effect the other way; inactive = flat fitted curve, though single readings scatter. The list shows a part of the results, in another mix than the full data.
# Assay: qHTS screen for small molecules that inhibit ELG1-dependent DNA repair in human embryonic kidney (HEK293T) cells expressing luciferase-tagged ELG1; also: nearly all actives have a fitted effect of over 55% in size
# Conditions: HEK293T ELG1-luciferase reporter, luminescence, 16 h, DNA damage induced by 5-fluorouridine; series mostly up to 46.1 µM; activity change, negative = inhibition: at the top concentration
# From the text: NIH Molecular Libraries Probe Production Network [MLPCN] NIH Chemical Genomics Center [NCGC] MLPCN Grant: 1 R03 MH092164-01 Assay Provider: Kyungjae Myung, NHGRI, NIH Keywords: MLPCN, qHTS, NCGC, genotoxicity, cancer Assay Overview: Cancer cells divide rapidly compared to normal cells in the body. During cell division, cancer cells need to duplicate their genome by DNA replication. The failure of genome duplication leads to cancer cells' death. Therefore, inhibitors of DNA replication could specifically kill cancer cells. Based on this concept, many chemotherapeutic agents were developed and have been used to treat cancer patients. However, there are a limited number of agents available in the clinical setting, and some of those that do exist have low efficacy and severe side effects. Therefore, if we can find the compounds that effectively block DNA replication either by directly damaging DNA or by inhibiting other cellular mechanisms, the options for cancer treatment will be broadened. With this in mind, we developed a quantitative high-throughput ELG1-luciferase reporter gene assay. Small molecules that specifically block ELG1 function in response to DNA damage can be identified by monitoring the suppression of luciferase activity. Since ELG1 defines a pathway for repairing DNA damage, agents blocking ELG1 function can be used to sensitize cancer cells to chemotherapeutic agents whose mechanism of action involves the induction of DNA damage.
# Assay Protocol Summary: For genotoxicity screening, 2,000 cells in 4 uL/well were dispensed into white, solid-bottom 1536-well plates using a solenoid-based dispenser. Following transfer of 1 uL 5-Fluorouridine and 23 nL compound or DMSO vehicle by a pin tool, the plates were incubated 16 hr at 37 °C and 5% CO2. 5 ul ONE-Glo (Promega) was then added to each plate and following a 30 min incubation at room temperature, luciferase activity was quantified on a ViewLux CCD-based plate reader.
# % is scaled to controls: 0 for no effect and ±100 for the full control effect; potency is read from the fitted curve at half-maximal effect.
SMILES,Potency,"activity change, negative = inhibition"
Cc1c(/C=N/NC(=O)CNc2ccccc2)c2ccccn2c1C(=O)c1ccc(Cl)cc1,active: 23.1 µM,
Cc1cn([C@H]2C=C[C@@H](CO)O2)c(=O)[nH]c1=O,,inactive: 6.9%
O=C(NCc1ccccc1)C1=C[C@@H](c2ccc(Br)cc2)C[C@@H](OCc2ccc(CO)cc2)O1,,inactive: 5.94%
NC1=NC[C@@H](Cc2ccc(O)cc2)N1CCCCC1CCCCC1,,inactive: -1.88%
COC(=O)c1ccc(C(NC(=O)OCc2ccccc2)/C(F)=C/[C@@H](C)C(=O)NCc2ccc(OC)c(OC)c2)cc1 (stereo not given in full),active: 18.4 µM,
CC(C)(C)OC(=O)C[C@H]1C/C=C\C[C@@H](CC(=O)N[C@@H](CO)Cc2ccccc2)C(=O)N2CCC[C@@H]2COC1=O,,inactive: -19%
N/C(=N/O)c1ccccc1N1CCC(Cc2ccccc2)CC1,active: 14.6 µM,
Cc1nn(Cc2ccc(Cl)cc2)c(C)c1NC(=O)c1c(-c2ccccc2)noc1C,active: 13 µM,
CC(C)c1ccc(CCNC(=O)c2ccc([N+](=O)[O-])cc2)cc1,active: 9.2 µM,
CCCCNc1cc(C)nc(NCc2ccccc2)n1,active: 14.6 µM,
COc1ccc(/C=N/n2c(N)c(S(=O)(=O)c3cccs3)c3nc4ccccc4nc32)cc1OC,active: 2.59 µM,
N#C/C(=C\c1ccc(N2CCOCC2)o1)C(=O)N1CCOCC1,,inactive: 27.5%
COc1cc2c(cc1NC(=O)C(C)Sc1ccc(NC(C)=O)cc1)oc1ccccc12 (stereo not given),active: 16.4 µM,
CCN(c1ccccc1)S(=O)(=O)c1ccc(OC)c(NC(=O)Cc2ccc(OC)c(OC)c2)c1,active: 18.3 µM,
O=C(C[C@H]1C/C=C\CC[C@@H](Cc2ccc(F)cc2)C(=O)O[C@@H](c2ccccc2)CNC1=O)N[C@H](CO)Cc1ccccc1,,inactive: 6.79%
O=C(C[C@H]1C/C=C/CC[C@H](Cc2ccc(F)cc2)C(=O)O[C@H](c2ccccc2)CNC1=O)NCCO,,inactive: -6.94%
OCC[C@@H]1C[C@H](O)[C@@H](O)[C@]2(CCCc3ccccc3O2)O1,,inactive: 4.02%
O=C(NCCN1CCOCC1)/C(=C\c1ccc(F)cc1)NC(=O)c1ccccc1,,inactive: 15%
C[N+](C)(C)CC(O)CC(=O)O (stereo not given),,inactive: -3.07%
O=c1c(O[C@H]2O[C@@H](CO)[C@H](O)[C@@H](O)[C@@H]2O)c(-c2ccc(O)cc2)oc2cc(O)cc(O)c12,,inactive: 18.5%
O=C1N=C(N2CCN(c3ccccc3)CC2)S/C1=C/c1ccco1,,inactive: -22.5%
COC(=O)c1sc(N)c(C(=O)OC)c1COC(=O)CCNS(=O)(=O)c1ccc(C)cc1,active: 10.3 µM,
CC(=O)Nc1ccc(S(=O)(=O)N=S(C)C)cc1,,inactive: 2%
C[C@@H]1COC(=O)[C@H](Cc2ccc(F)cc2)C/C=C\C[C@@H](CC(=O)NCCO)C(=O)N1,,inactive: 8.4%
C[C@H](CO)N1C[C@H](C)[C@@H](CN(C)C(=O)Nc2ccc(C(F)(F)F)cc2)Oc2ccc(NC(=O)NC3CCCCC3)cc2C1=O,,inactive: 1.79%
C[C@H]1COC(=O)[C@H](Cc2ccc(F)cc2)C/C=C\C[C@@H](CC(=O)N(CCO)Cc2ccccc2)C(=O)N1,,inactive: -17.5%
CC1(C)Oc2ccc3ccc(=O)oc3c2[C@@H](O)[C@H]1O,,inactive: 26.2%

SMILES,Potency,"activity change, negative = inhibition"
COc1ccc(C2c3[nH]c4ccccc4c3C[C@H]3C(=O)N(c4ccccc4C(=O)N4CCC[C@@H]4C(=O)O)C(=O)N23)cc1 (stereo not given in full),,inactive: 10.3%
O=C(C[C@@H]1C/C=C/CC[C@H](Cc2ccc(F)cc2)C(=O)O[C@H](c2ccccc2)CNC1=O)NCCO,,inactive: -0.478%
COC(C[C@@H](O)CC(=O)[C@@H](C)OCc1ccccc1)OC,,inactive: 6.84%
C/C=C(\C)C(=O)NCCN1C2=NC[C@H](Cc3ccccc3)N2C[C@H]1Cc1ccc(O)cc1,,inactive: 19.4%
CCC(C)[C@H](NC(=O)N1CC(=O)Nc2ccccc21)C(=O)N[C@H](Cc1c[nH]c2ccccc12)C(=O)O (stereo not given in full),,inactive: 22.1%
CC(=O)N1c2ccc(S(=O)(=O)N3CCC(C(=O)NCc4ccccc4Cl)CC3)cc2CC1C (stereo not given),active: 23.1 µM,
O=C(C1CCN(c2ncnc3c2nc2n3CCCCC2)CC1)N1CCN(c2ccc(F)cc2)CC1,active: 7.3 µM,
CCO[C@@H]1OC(C(=O)Nc2ccccc2)=C[C@H](c2ccc(Br)cc2)[C@H]1CCCO,,inactive: -8.1%
C=CCOC(=O)/C(=C\c1cccc2ccccc12)NC(=O)c1ccccc1,,inactive: 18.2%
c1ccc(-c2nc(NCc3ccco3)c3ccccc3n2)nc1,active: 7.31 µM,
CC(C)(C)OC(=O)C[C@@H]1C/C=C\C[C@H](CC(=O)NCCO)C(=O)N2CCC[C@@H]2COC1=O,,inactive: 13.7%
OCC[C@@H]1C[C@H](O)[C@@H](O)[C@@]2(Cc3ccccc3CO2)O1,,inactive: 9.32%
OC(COc1cccc(OCC(O)CN2CCOCC2)c1)CN1CCOCC1 (stereo not given),,inactive: 0.109%
CCOC(=O)[C@@H]1[C@H]2COc3cc(OC)ccc3[C@@H]2N2C(=O)N(c3ccc(C(F)(F)F)cc3)C(=O)[C@@]12C,,inactive: 2.38%
COC(=O)/C=C1\S/C(=N/NC(=O)c2ccc(OC)cc2)NC1=O,,inactive: -11.7%
CN1CCc2cccc3c2C1Cc1ccc(O)c(O)c1-3 (stereo not given),,inactive: -18.3%
Cc1cccc2[nH]c3c(N4CCC5(CC4)OCCO5)ncnc3c12,active: 16.4 µM,
O=C(Cn1cnc2cc([N+](=O)[O-])ccc2c1=O)Nc1cccc(S(=O)(=O)N2CCOCC2)c1,active: 3.26 µM,
CC(C)(O)CC[C@@H](O)[C@](C)(O)[C@H]1CC[C@@]2(O)C3=CC(=O)[C@@H]4C[C@@H](O)[C@@H](O)C[C@]4(C)[C@H]3CC[C@]12C,,inactive: -1%
C=CC[n+]1c(C)csc1Nc1ccc(C(=O)O)cc1,,inactive: -1.92%
O=C(NC(Cc1ccccc1)C(=O)O)/C(=C/c1ccc(Cl)cc1)NC(=O)c1ccccc1 (stereo not given),,inactive: 22.1%
OCC[C@@H]1C[C@@H](O)[C@H](O)[C@@]2(Cc3ccccc3CO2)O1,,inactive: 0.732%
C=CCC1Cc2c(cccc2[N+](=O)[O-])C(CC=C)N1 (stereo not given),,inactive: 16.1%
C[C@H](CO)N1C[C@H](C)[C@@H](CN(C)S(=O)(=O)c2ccccc2)Oc2ccc(NC(=O)C3CCCCC3)cc2C1=O,,inactive: -19.8%
C/C(CCN1CCc2nc(-c3ccccc3)c(-c3ccccc3)cc2C1)=N\O[C@H](C)c1cn([C@H](CO)Cc2ccccc2)nn1,,inactive: -21.1%
CC[n+]1c(/C=C2\C=C(C)CC(C)C2)sc2ccccc21 (stereo not given),,inactive: -1.07%
COc1ccc(NC(=O)Cc2ccc(C)c(C)c2)cc1S(=O)(=O)N1CCCCC1,active: 25.9 µM,

SMILES,Potency,"activity change, negative = inhibition"
C[C@H](NC(=O)c1ncn(C)c1C(=O)N[C@@H](C)c1ccccc1)c1ccccc1,,inactive: 7.09%
C[C@@H]1COC(=O)[C@H](CC(=O)OC(C)(C)C)C/C=C\C[C@H](CC(=O)NCCO)C(=O)N1,,inactive: 19.6%
C=CCC[C@@H](Cc1ccc(F)cc1)C(=O)OC[C@@H](Cc1c[nH]c2ccccc12)NC(=O)[C@@H](CC=C)CC(=O)N[C@@H](CO)Cc1ccccc1,,inactive: 2.76%
C[C@@H]1CN([C@H](C)CO)C(=O)c2cccc(NC(=O)c3ccncc3)c2O[C@@H]1CN(C)Cc1ccc(C(=O)O)cc1,,inactive: 25.8%
C[C@@H]1CC[C@@]2(O[C@H](CCO)C[C@H](O)[C@H]2O)O1,,inactive: 13.4%
COc1ccc(Cl)cc1C(=O)OCC(=O)Nc1sccc1C(N)=O,active: 23.1 µM,
COc1ccccc1NC(=O)/C=C/C(=O)O,,inactive: 1.85%
CN1CCN(C(=O)/C=C\c2ccc(Cl)cc2)CC1,,inactive: 27.6%
O=c1[nH]c(=O)n(C2C[C@H](O)[C@@H](CO)O2)cc1C(F)(F)F (stereo not given in full),,inactive: -1.55%
C/C=C(/C)C(=O)O[C@@H]1Cc2c(ccc3ccc(=O)oc23)OC1(C)C,,inactive: -2.18%
C=CCN(CC=C)S(=O)(=O)c1ccc(C(=O)Nc2nnc(CSC)o2)cc1,active: 18.3 µM,
O=S(=O)(NCc1ccccc1)c1ccc(S(=O)(=O)N(Cc2ccccn2)C2CCCC2)cc1,active: 20.6 µM,
CC(C)(C)OC(=O)C[C@H]1C/C=C\C[C@@H](CC(=O)NCCO)C(=O)NC[C@@H](c2ccccc2)OC1=O,,inactive: 15.1%
CCOC(=O)[C@@H]1[C@H]2COc3ccc(Br)cc3[C@@H]2N2C(=O)N(c3cccc(F)c3)C(=O)[C@@]12C,,inactive: 14.8%
COc1cc([N+](=O)[O-])ccc1NC(=O)/C=C\C(=O)O,,inactive: -10.8%
COc1ccc(/C=C(/NC(=O)c2ccccc2)C(=O)NCc2ccco2)cc1,,inactive: -0.883%
CCCCCCSc1ccc([C@@H]2[C@@H]3C(=O)N(C)C(=O)[C@@H]3[C@]3(C(=O)OC)CCCCN23)cc1OC,,inactive: -1.91%
Cc1ccc(CN2CCc3c(OCC(=O)Nc4cc(C)ccc4C)cccc3C2=O)cc1,active: 23.1 µM,
COc1ccc(/C=C(/NC(=O)c2ccccc2Cl)C(=O)NCCCC(=O)O)cc1,,inactive: 5.63%
Cc1ccc(C(=O)N/C(=C/c2ccco2)C(=O)NC2CCS(=O)(=O)C2)cc1 (stereo not given),,inactive: -1.34%
COc1cc(CCCN2CCNC[C@H]2Cc2ccc(O)cc2)cc(OC)c1OC,,inactive: 30%
COC(=O)[C@@]12CCCCN1[C@H](c1ccc(-c3ccc(F)cc3)c(OC)c1)[C@@H]1C(=O)N(C)C(=O)[C@@H]12,,inactive: -16.5%
COc1c2ccoc2nc2c(OC)c(OCC(O)C(C)(C)O)ccc12 (stereo not given),,inactive: 11.8%
CCOC(=O)[C@@H]1[C@H]2COc3cc(OC)ccc3[C@@H]2N2C(=O)N(c3ccccc3)C(=O)[C@]12C,,inactive: -0.238%
C[C@@H]1COC(=O)[C@@H](CC(=O)OC(C)(C)C)C/C=C\C[C@@H](CC(=O)NCCO)C(=O)N1,,inactive: 28.6%
C=CC[C@H](CC(=O)OC(C)(C)C)C(=O)OC[C@@H]1CCCN1C(=O)[C@H](CC=C)CC(=O)N[C@H](CO)Cc1ccccc1,,inactive: -21.8%
